What all share (assay): Primary Screen for Target Class Profiling of Small Molecule Inhibitors of Methyltransferases
Assay [1] has as its target Glycine N-methyltransferase (Homo sapiens) (UniProt Q14749). Conditions: purified enzyme, MTase-Glo SAH luminescence; measured here: GNMT inhibition; at 40 µM; stronger effect = lower value. A digest of the protocol: (§1)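 Each enzyme was reacted with SAM and its substrate, with compounds tested once at 40 uM; SAH formed was read by MTase-Glo luminescence.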
Assay [2] deals with Guanidinoacetate N-methyltransferase (Homo sapiens) (UniProt Q14353). Conditions: purified enzyme, MTase-Glo SAH luminescence; measured here: GAMT inhibition; at 40 µM; stronger effect = lower value. A digest of the protocol:
as §1

The target of assay [3] is Histamine N-methyltransferase (Homo sapiens) (UniProt P50135). The conditions noted are these: purified enzyme, MTase-Glo SAH luminescence; measured here: HNMT inhibition; at 40 µM; stronger effect = lower value. Summed up:
as §1

Assay [4] concerns the target Nicotinamide N-methyltransferase (Homo sapiens) (UniProt P40261). The conditions noted are these: purified enzyme, MTase-Glo SAH luminescence; measured here: NNMT inhibition; at 40 µM; stronger effect = lower value. A digest of the protocol: as §1
Assay [5] has as its target Phenylethanolamine N-methyltransferase (Homo sapiens) (UniProt P11086). Conditions: purified enzyme, MTase-Glo SAH luminescence; measured here: PNMT inhibition; at 40 µM; stronger effect = lower value. Summed up:
as §1

This is one part of the list. These are further read-outs of the screen, such as a control signal, another cell line or another target. No call is given for them.
On the % scale 0 is the no-effect control and ±100 the full control effect.

Take `O=C1NC(=O)C(c2ccccc2)(c2ccccc2)N1`: the activity change, negative = inhibition in assay [1] was -2.31%; in assay [2], 8.22%; in assay [3], 0.727%; in assay [4] it was -1.49%; in assay [5], 9.85%.

Turning to `COc1ccnc(CN2C(=O)NC(CCc3ccccc3)(C3CCNCC3)C2=O)c1` (stereo not drawn), the activity change, negative = inhibition in assay [1] was -3.35%; in assay [2] it was -4.12%; in assay [3] it was -1.78%; in assay [4], -8%; in assay [5] it was -0.114%.

With `CC(C)(O)c1ccccc1CC[C@@H](SCC1(CC(=O)O)CC1)c1cccc(/C=C/c2ccc3ccc(Cl)cc3n2)c1`, the activity change, negative = inhibition was -31.8% in assay [1]; -25.3% in assay [2]; -2.73% in assay [3]; -76.3% in assay [4]; -7.83% in assay [5].

Regarding `CCOC(=O)c1cc2n(n1)CC(C)(C(=O)NCc1ccc(F)cc1)N(c1ccc(OC)cc1)C2=O` (stereo not drawn), the activity change, negative = inhibition is 0.068% in assay [1]; 0% in assay [2]; 0.253% in assay [3]; 0.57% in assay [4]; -2.15% in assay [5].

For the compound `Cc1ccccc1CN1C(=O)c2ccc(-c3ccccc3)n2CC1(C)C(=O)NC1CCCCCC1` (stereo not drawn), the activity change, negative = inhibition is -1.69% in assay [1]; -0.601% in assay [2]; -5.03% in assay [3]; -7.68% in assay [4]; -6.58% in assay [5].

Turning to `CCC(C)NC(=O)c1ccc2c(=O)n(CC(C)C)c3nn(Cc4ccc(F)cc4Cl)c(=O)n3c2c1` (stereo not drawn), the activity change, negative = inhibition in assay [1] is -10.2%; in assay [2], -0.867%; in assay [3] it was -2.15%; in assay [4], -8.16%; in assay [5] it was -3.65%.

With `COc1ccc(-c2n[nH]n3c2nc(=O)c2ccc(C(=O)NCCCOC(C)C)cc23)cc1`, the activity change, negative = inhibition was -0.185% in assay [1]; 0.306% in assay [2]; 6.53% in assay [3]; -0.894% in assay [4]; 0.828% in assay [5].

As to `COc1cccc(CSc2nnc3n(Cc4ccc(C)cc4)c(=O)c4ccccc4n23)c1`, the activity change, negative = inhibition is -2.17% in assay [1]; 1.75% in assay [2]; -0.273% in assay [3]; -4.61% in assay [4]; -2.5% in assay [5].

Take `COc1ccc(CCNC(=O)CC(c2cccc(F)c2)c2cn(C)c3ccccc23)cc1OC` (stereo not drawn): the activity change, negative = inhibition in assay [1] was -11.4%; in assay [2], -10.1%; in assay [3], -27.7%; in assay [4] it was -14.5%; in assay [5], -15.3%.

With `CC(C)CCNC(=O)C1(C)Cn2c(c(-n3cccc3)c3ccccc32)C(=O)N1CCc1cccs1` (stereo not drawn), the activity change, negative = inhibition in assay [1] is 4.5%; in assay [2], 0%; in assay [3], -0.967%; in assay [4], 3.91%; in assay [5] it was 0.413%.

Turning to `COc1cc(C(=O)NCCCn2ccnn2)ccc1OC1CCN(C(C)=O)CC1`, the activity change, negative = inhibition was -7.36% in assay [1]; -12.4% in assay [2]; -4.52% in assay [3]; -19.6% in assay [4]; -16.7% in assay [5].

Take `CN1Cc2c(N)cccc2C(c2ccccc2)C1` (stereo not drawn): the activity change, negative = inhibition in assay [1] is -12.6%; in assay [2], 3.08%; in assay [3], -33.9%; in assay [4] it was -11.4%; in assay [5], 3.94%.

Take `C#CCNC(=O)[C@@H]1CCCN1[C@@H](C(=O)NC)c1ccccc1`: the activity change, negative = inhibition in assay [1] was -5.74%; in assay [2], -9.08%; in assay [3], -4.68%; in assay [4] it was -10.7%; in assay [5], -4.33%.

For `COC(=O)c1cc2n(n1)CC(C)(C(=O)NC1CCCCC1)N(Cc1ccc(Cl)cc1)C2=O` (stereo not drawn), the activity change, negative = inhibition in assay [1] is 0.286%; in assay [2], 5.43%; in assay [3], 6.26%; in assay [4], -1.96%; in assay [5], 0.857%.

For `O=S(=O)(c1ccc2c(c1)CCC2)N1CCC(Cc2nc(-c3ccncc3)n[nH]2)C1` (stereo not drawn), the activity change, negative = inhibition in assay [1] was -5.22%; in assay [2], -2.28%; in assay [3], -2.45%; in assay [4], -8.24%; in assay [5], -4.35%.

As for `CN(C)C/C=C/C(=O)Nc1cc2c(Nc3ccc(F)c(Cl)c3)ncnc2cc1O[C@H]1CCOC1`, the activity change, negative = inhibition in assay [2] is -63.1%; in assay [4], -70.6%; in assay [5], -76.5%.

Turning to `C/C=C(\C)C(=O)O[C@@H]1[C@@H](C)[C@]2(O)[C@@H]3C=C(C)C(=O)[C@H]3CC(CO)=C[C@H]2C2C(C)(C)[C@@]21OC(=O)C(C)CC` (stereo partly drawn), the activity change, negative = inhibition in assay [1] was -8.8%; in assay [2], -12.7%; in assay [3], -1.04%; in assay [4] it was -22.6%; in assay [5], -16.5%.

With `O=C(CCc1ccccc1)c1c(O)c([C@@H]2O[C@H](CO)[C@@H](O)[C@H](O)[C@H]2O)c(O)c([C@@H]2O[C@H](CO)[C@@H](O)[C@H](O)[C@H]2O)c1O`, the activity change, negative = inhibition is 0% in assay [1]; 9.08% in assay [2]; 4.6% in assay [3]; -4.18% in assay [4]; 5.85% in assay [5].

With `CC1=CC2/C=C(\C)CC[C@@H](O)[C@@H](O)[C@@H]3O[C@@H]3C(=O)[C@]23C(=O)N[C@@H](CC(C)C)[C@@H]3[C@@H]1C` (stereo partly drawn), the activity change, negative = inhibition in assay [1] was -4.93%; in assay [2], 1.19%; in assay [3], 4.93%; in assay [4], -14.5%; in assay [5] it was -11.8%.

As to `COc1cccc(CN2C(=O)CSc3c(c4ccccc4n3C)C2C(=O)NCCCOC(C)C)c1` (stereo not drawn), the activity change, negative = inhibition in assay [1] was -2.16%; in assay [2], -6.95%; in assay [3] it was 2.32%; in assay [4], -11.3%; in assay [5], -4.2%.

`Cn1cc(CN2CCN(c3cnccn3)CC2)c(-c2ccc(C3CCCCC3)cc2)n1`: the activity change, negative = inhibition was -8.56% in assay [1]; 0.597% in assay [2]; -0.43% in assay [3]; -28.8% in assay [4]; -5.05% in assay [5].

On to `COc1ccc(OC)c(N2C(=O)c3cc4ccc(OC)cc4n3CC2(C)C(=O)NC2CCCCC2)c1` (stereo not drawn), for which the activity change, negative = inhibition in assay [1] is -3.28%; in assay [2], 0%; in assay [3] it was 1.53%; in assay [4] it was -4.79%; in assay [5] it was -3.23%.

In the case of `CCOC(=O)c1cc2n(n1)CC(C)(C(=O)NCCC(C)C)N(c1ccc(F)cc1C)C2=O` (stereo not drawn), the activity change, negative = inhibition is -4.25% in assay [1]; 5.19% in assay [2]; -1.74% in assay [3]; 4.39% in assay [4]; -1.76% in assay [5].

Regarding `COc1ccc(C2COc3cc(O)ccc3C2)c(O)c1OC` (stereo not drawn), the activity change, negative = inhibition in assay [1] was 0%; in assay [2], 4.85%; in assay [3], 3.82%; in assay [4], -11.8%; in assay [5] it was 4.71%.

For the compound `CCOCCCNc1nc2c(S(=O)(=O)c3ccc(CC)cc3)nnn2c2ccccc12`, the activity change, negative = inhibition was -7.22% in assay [1]; 4.67% in assay [2]; 0.177% in assay [3]; -4.57% in assay [4]; -7.41% in assay [5].

Turning to `Cc1ccc(NC(=O)CSc2nnc3n(CCc4ccccc4)c(=O)c4ccccc4n23)c(C)c1`, the activity change, negative = inhibition in assay [1] was 3.05%; in assay [2] it was 4.99%; in assay [3], 6.84%; in assay [4], -3.17%; in assay [5] it was -0.238%.

Take `Cc1cccc(-c2nnn3c2nc(N2CCCC2)c2ccccc23)c1`: the activity change, negative = inhibition is -3.95% in assay [1]; 1.54% in assay [2]; -2.62% in assay [3]; 2.69% in assay [4]; -12.8% in assay [5].

In the case of `CCC(C)NC(=O)c1ccc2c(=O)n(C)c3nn(Cc4cccc(OC)c4)c(=O)n3c2c1` (stereo not drawn), the activity change, negative = inhibition in assay [1] came to 7.63%; in assay [2], 0.711%; in assay [3], 6.37%; in assay [4], 4.69%; in assay [5] it was 8.01%.

`COc1cccc(CN2C(=O)c3nc4ccccc4n3CC2(C)C(=O)NC2CCCC(C)C2C)c1` (stereo not drawn): the activity change, negative = inhibition in assay [1] is -5.72%; in assay [2], 5.48%; in assay [3], -1.7%; in assay [4] it was -17.2%; in assay [5], -1.29%.

Values taken from PubChem BioAssay AID1745853 (National Center for Advancing Translational Sciences (NCATS), 2022).
